According to the supplement of paper PMC12009370:
The other results are listed elsewhere or left out. Single values are uncertain, as repeats are few or missing.

These compounds were tested on IMR-32 (assay: drug sensitivity score (DSS) in combination with GSK2830371 (DSS (score)); neuroblastoma lines; SL-176 and GSK2830371 are WIP1 inhibitors; higher = more cytotoxic; extreme values may be limits of the assay). Conditions: 72 h; co-treatment: GSK2830371 at IC25 in IMR-32.
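Also: neuroblastoma cells in 384-well plates, each compound at five concentrations, luminescence read-out, DSS derived from fitted concentration-response curve combining IC50 with minimum and maximum inhibition.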

Row | SMILES | drug sensitivity score
1 | S=c1[nH]cnc2nc[nH]c12 [Mercaptopurine] | 9.4
2 | CC[C@H](C)C(=O)O[C@H]1C[C@H](O)C=C2C=C[C@H](C)[C@H](CC[C@@H](O)C[C@@H](O)CC(=O)O)[C@H]21 [Pravastatin] | 0
3 | NC(=S)N/N=C/c1ncccc1N [Triapine] | 15
4 | CC[C@H](Nc1ncnc2[nH]cnc12)c1nc2cccc(F)c2c(=O)n1-c1ccccc1 [Idelalisib] | 3.8
5 | CC1(C)CNc2cc(NC(=O)c3cccnc3NCc3ccncc3)ccc21 [Motesanib] | 0
6 | Cc1cnc(-c2ccccc2C(C)C)nc1NCc1ccc(-n2ccnn2)cc1 | 3.9
7 | Cc1ccc(-n2nc(C(C)(C)C)cc2NC(=O)Nc2ccc(OCCN3CCOCC3)c3ccccc23)cc1 [Doramapimod] | 7.6
8 | COc1cc2nccc(Oc3ccc(NC(=O)Nc4cc(C)on4)c(Cl)c3)c2cc1OC [Tivozanib] | 9.3
9 | O=c1sn(-c2cccc3ccccc23)c(=O)n1Cc1ccccc1 [Tideglusib] | 0
10 | CC(C)(O)CC(=O)NCCn1ccc2ncnc(Nc3ccc(Oc4cccc(C(F)(F)F)c4)c(Cl)c3)c21 | 0
11 | Cc1c(-c2c(-c3ccc(F)o3)sc3ncnc(O[C@H](Cc4ccccc4OCc4ccnn4CC(F)(F)F)C(=O)O)c23)ccc(OCCN2CCN(C)CC2)c1Cl | 4.1
12 | Cn1cc(-c2ccc(F)c(C(F)(F)F)c2)nc1C1CCN(c2ncnc3[nH]ncc23)CC1 | 4.2
13 | Nc1nc(NC2CC2)cc(-c2cccc(Cl)c2Cl)n1 | 19
14 | CNC(=O)c1cc(COc2nnc(Nc3ccc(Cl)cc3)c3ccoc23)ccn1 [Telatinib] | 0.5
15 | Nc1ncnc2c1c(COc1cccc(Cl)c1)nn2C1CCOCC1 | 0.2
16 | CCOc1ccn(-c2ccc(F)cc2)c(=O)c1C(=O)Nc1ccc(Oc2ccnc(N)c2Cl)c(F)c1 | 0.5
17 | NC(=O)c1cccc(-c2cccc(OC(=O)NC3CCCCC3)c2)c1 | 0
18 | CN(C(=O)c1ccc(F)cc1C(F)(F)F)C1CCN(c2nnc(-c3ccnn3C)c3ccccc23)CC1 [Taladegib] | 3.8
19 | C[C@]1(c2nc3c(C(N)=O)cccc3[nH]2)CCCN1 [Veliparib] | 7.6

Row | SMILES | drug sensitivity score
20 | Nc1ncn([C@@H]2O[C@H](CO)[C@@H](O)[C@H]2O)c(=O)n1 [Azacitidine] | 10.6
21 | O=C(O)c1ccc(CN2CCC(CN[C@@H]3C[C@H]3c3ccccc3)CC2)cc1 | 0
22 | CN(C)Cc1c(C(=O)NCCOc2ccc(C(=O)NO)cc2)oc2ccccc12 [Abexinostat] | 25
23 | CCCCNc1ncc(C(=O)NCc2ccc(-n3ccnc3)cc2)c(NC2CCC(O)CC2)n1 (stereo not drawn) | 0.5
24 | CN(C)C(=O)c1cc2cnc(Nc3ccc(N4CCNCC4)cn3)nc2n1C1CCCC1 [Ribociclib] | 2.5
25 | Cc1ccc(NS(=O)(=O)c2cccc(C#N)c2)c2[nH]cc(C#N)c12 | 27.4
26 | COc1cccc2c1C(=O)c1c(O)c3c(c(O)c1C2=O)C[C@@](O)(/C(CO)=N/NC(=O)CCCCCN1C(=O)C=CC1=O)C[C@@H]3O[C@H]1C[C@H](N)[C@H](O)[C@H](C)O1 [Aldoxorubicin] | 22.5
27 | NC1(c2ccc(-c3nc4ccn5c(=O)[nH]nc5c4cc3-c3ccccc3)cc2)CCC1 | 1.2
28 | O=C(/C=C/c1cccnc1)NCCCCC1CCN(C(=O)c2ccccc2)CC1 [Daporinad] | 45.3
29 | CCN(CC)CCNC(=O)c1c(C)[nH]c(/C=C2\C(=O)Nc3ccc(F)cc32)c1C [Sunitinib] | 0
30 | CNCc1ccc(-c2[nH]c3cc(F)cc4c3c2CCNC4=O)cc1 [Rucaparib] | 17.4
31 | Cc1cc(F)c(C(=O)Nc2cccc(-c3nncn3C(C)C)n2)cc1-n1cnc(C2CC2)c1 [Selonsertib] | 0
32 | C[C@@H]1CN(Cc2ccc(F)cc2)[C@@H](C)CN1C(=O)c1cc2c(C(=O)C(=O)N(C)C)cn(C)c2cc1Cl [Talmapimod] | 1.8
33 | CC(=O)O[C@H]1C(=O)[C@@]2(C)[C@H]([C@H](OC(=O)c3ccccc3)[C@]3(O)C[C@H](OC(=O)[C@H](O)[C@@H](NC(=O)c4ccccc4)c4ccccc4)C(C)=C1C3(C)C)[C@]1(OC(C)=O)CO[C@@H]1C[C@@H]2O [Paclitaxel] | 41
34 | CN1CC[C@H](c2c(O)cc(O)c3c(=O)cc(-c4ccccc4Cl)oc23)[C@H](O)C1 [Alvocidib] | 18.5
35 | COc1cccc2c1C(=O)c1c(O)c3c(c(O)c1C2=O)C[C@@](O)(C(=O)CO)C[C@@H]3O[C@H]1C[C@H](N)[C@@H](O)[C@H](C)O1 [Epirubicin] | 25.2
36 | Cc1cc(-c2nc(-c3ccc(OC(F)(F)F)cc3)no2)nn1Cc1ccnc(N2CCN(C3CC3)CC2)c1 | 4.8
37 | CCN(CC)CCNC(=O)c1c(C)[nH]c(/C=C2\C(=O)Nc3ccc(-c4csc(-c5ccccc5)n4)cc32)c1C [Amcasertib] | 12.9
38 | COc1cc(Nc2ncc(F)c(Nc3ccc4c(n3)N(COP(=O)(O)O)C(=O)C(C)(C)O4)n2)cc(OC)c1OC [Fostamatinib] | 2.4
